From US20250368740A1 (SHENZHEN BAISHITONG TECHNOLOGY DEVELOPMENT, published 2025)

Molecular target: T1, biotinylated human CD122/132 (human, UniProt P14784 27-239; P31785 23-254, limits assumed, biotinylated (site not stated))
T1 construct: Bought heterodimeric reagent; also called CD122/CD132
T1 sequence (looked up) 1: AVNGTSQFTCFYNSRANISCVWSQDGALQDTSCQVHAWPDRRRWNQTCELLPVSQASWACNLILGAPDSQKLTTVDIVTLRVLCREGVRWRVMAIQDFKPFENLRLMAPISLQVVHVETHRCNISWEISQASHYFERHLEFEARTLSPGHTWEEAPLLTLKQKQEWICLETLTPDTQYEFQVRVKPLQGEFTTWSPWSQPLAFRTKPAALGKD
T1 sequence (looked up) 2: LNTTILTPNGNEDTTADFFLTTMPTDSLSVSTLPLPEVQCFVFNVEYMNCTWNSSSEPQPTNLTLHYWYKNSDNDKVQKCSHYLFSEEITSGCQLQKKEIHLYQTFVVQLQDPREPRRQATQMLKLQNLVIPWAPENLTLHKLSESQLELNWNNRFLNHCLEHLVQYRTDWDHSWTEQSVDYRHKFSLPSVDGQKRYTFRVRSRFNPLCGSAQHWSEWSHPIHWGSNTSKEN
Assay: sandwich ELISA: antibody on coated human CD276-ECD, biotinylated CD122/132 detected with SA-HRP
Experimental: The method was as follows: The plates were pre-coated with human CD276-ECD protein diluted to 2 μg/mL in the coating solution (50 mM carbonate coating buffer, pH 9.6) and incubated at 4° C. overnight. The plates were then blocked with 5% skim milk powder at 37° C. for 2 hours. Afterward, the plates were washed 3 times with PBST, and the to-be-tested antibody, diluted in 1% BSA-PBST at various gradients, was added to the blocked plates at 100 μL per well. The plates were incubated at 37° C. for 1 hour. […] Following 3 additional washes with PBST, diluted HRP-conjugated streptavidin (SA) (purchased from Pierce) was added, and the plates were incubated at 37° C. for 30 minutes. After 3 more washes with PBST, residual droplets were removed by blotting on absorbent paper. Then, 100 μL of TMB substrate (purchased from KPL) was added to each well, and the plates were incubated at room temperature (20±5° C.) in the dark for 5 minutes.
As a control, hu147 could bind to CD276 (as shown in Embodiment 8), but not CD122/CD132.

EC50: 0.0177 µg/mL and 0.09 nM
B1: hu147-IL15 bifunctional antibody SPGL008 (other)
heavy: QVQLVQSGAEVKKPGSSVKVSCKASGYIFTADWIYWVRQAPGQGLEWMGRIYPGVDTTYYAQKFQGRVTITADKSTSTAYMELSSLRSEDTAVYYCARGGEVRRDFYALDYWGQGTTVTVSS[in this place human IgG1 constant region with changes]GGGGSGGGGSGGGGSITCPPPMSVEHADIWVKSYSLYSRERYICNSGFKRKAGTSSLTECVLNKATNVAHWTTPSLKCIRGGGGSGGGGSGGGGSGGGGSGGGGSGGGGS[in this place about 120 residues]
light: EIVMTQSPPTLSLSPGERVTLSCRASENVGTYVSWYQQKPGQAPRLLIYGASNRYTGIPARFSGSGSGTDFTLTISSLQPEDFAVYYCGQRYSYPFTFGGGTKLEIKRTVAAPSVFIFPPSDEQLKSGTASVVCLLNNFYPREAKVQWKVDNALQSGNSQESVTEQDSKDSTYSLSSTLTLSKADYEKHKVYACEVTHQGLSSPVTKSFNRGEC
notes: About 190 kDa

EC50: 0.0151 µg/mL and 0.08 nM
B2: hu147-IL15 bifunctional antibody SPGL007 (other)
heavy: QVQLVQSGAEVKKPGSSVKVSCKASGYIFTADWIYWVRQAPGQGLEWMGRIYPGVDTTYYAQKFQGRVTITADKSTSTAYMELSSLRSEDTAVYYCARGGEVRRDFYALDYWGQGTTVTVSS[in this place human IgG1 constant region]GGGGSGGGGSGGGGSITCPPPMSVEHADIWVKSYSLYSRERYICNSGFKRKAGTSSLTECVLNKATNVAHWTTPSLKCIRGGGGSGGGGSGGGGSGGGGSGGGGSGGGGS[in this place about 120 residues]
light: B1 light
notes: About 190 kDa

Several values for one entry are separate records, joined by “and”; a condition that tells them apart may be missing. Identical values can stand only once. Each block holds one binder with its values, some of them ahead of it.
